Source: PubChem BioAssay (NCI)
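Method: 48-hour compound exposure of cells in 96-well plates, five concentrations, linear interpolation of endpoints. GI50 = concentration required for 50% inhibition of growth. At the TGI there is no net growth.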

System: NCI-H322M lung
Experiment: NCI-60 cell line screen, 48 h

Compound | GI50 [µM] | TGI [µM]
O=C(/C=C/c1ccco1)c1nc2ccccc2n1Cc1ccc(Br)cc1 | 17.4 | 52.7
COc1ccc(Cc2nn(CC(=O)N/N=C/c3ccc(F)cc3)c(=O)c3c(C)noc23)cc1 | 5.27 | 26
O=c1oc2ccc(-c3ccc(F)cc3F)cc2c(=O)n1-c1ccc(F)c(Cl)c1 | 2.78 | 11.2
COc1cc2cc(C(=O)N3C[C@@H](CCl)c4c3cc(OC(=O)N3CCN(C)[C@@H]5CSSC[C@H]53)c3ccccc43)[nH]c2c(OC)c1OC | 0.0234 | 0.892
